Laboratory results reported in publication PMC6919601, “Identification of Plasmodium dipeptidyl aminopeptidase allosteric inhibitors by high throughput screening” (PLoS ONE, 2019).
In all, about 110,000 compounds went through this assay and about 230 (0.21%) showed an effect of 50% or more. This is one part of the list.

target: DPAP1 (Plasmodium falciparum, UniProt Q8IIJ9); assay: primary screen, percent inhibition; read by cleavage of a fluorogenic dipeptide substrate; higher = more effect of the substance; design: species or system P. falciparum D10 trophozoite lysates; single well
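Note: 30 min substrate incubation versus DMSO and 10 µM JCP410 controls.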

Chain of DPAP1 (Q8IIJ9 whole entry, looked up): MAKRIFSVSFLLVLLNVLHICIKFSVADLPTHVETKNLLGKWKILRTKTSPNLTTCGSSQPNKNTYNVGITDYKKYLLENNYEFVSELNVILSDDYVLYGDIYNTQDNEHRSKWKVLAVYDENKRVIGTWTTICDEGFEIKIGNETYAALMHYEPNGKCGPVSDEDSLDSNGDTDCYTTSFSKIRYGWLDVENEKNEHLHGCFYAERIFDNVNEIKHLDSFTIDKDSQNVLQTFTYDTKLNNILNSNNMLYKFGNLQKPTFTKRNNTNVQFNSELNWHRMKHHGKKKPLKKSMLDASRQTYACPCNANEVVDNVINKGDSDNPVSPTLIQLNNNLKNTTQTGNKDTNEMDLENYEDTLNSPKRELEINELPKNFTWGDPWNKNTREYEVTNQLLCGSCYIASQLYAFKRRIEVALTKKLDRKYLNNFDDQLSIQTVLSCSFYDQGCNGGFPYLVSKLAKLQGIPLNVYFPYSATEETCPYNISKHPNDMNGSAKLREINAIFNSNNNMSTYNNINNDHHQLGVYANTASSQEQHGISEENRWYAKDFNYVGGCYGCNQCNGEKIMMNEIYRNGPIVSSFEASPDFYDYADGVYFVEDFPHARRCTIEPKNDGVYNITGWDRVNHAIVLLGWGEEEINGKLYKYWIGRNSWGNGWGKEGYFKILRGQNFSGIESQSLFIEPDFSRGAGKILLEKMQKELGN

Structure (SMILES)	% Inhibition @ 10 uM [%]
COc1ccc(-c2onc(C)c2C)cc1S(=O)(=O)Nc1cc(C)nc2ccccc12	-0.0795
COc1ccc(C(=O)n2nc(-c3cccnc3)nc2N)cc1OC	-1.33
C=CCNC(=O)/C(C#N)=C/c1c(Oc2ccc(C)cc2)nc2ccccn2c1=O	1.19
Cc1noc(C)c1S(=O)(=O)N1CCC(C(=O)NCCCN2CC(C)CC(C)C2)CC1 (centres unmarked)	-2.99
Cc1ccc2nc(NC(=O)CSc3nnc(Cc4cccn4C)n3C)sc2c1	3.33
CC1(C)CC(=O)c2cc(C(=O)NC3CCCCC3)c(O)nc2C1	-0.601
Cc1ccnc2nc(NC(=O)C(C)C)nn12	2.05
CN1CCN(c2cc3c(cc2N)c(=O)c(C(=O)O)c2n3CCC2)CC1	-10.1
O=C(O)CCC(=O)N1N=C(c2c(O)nc3ccc(Cl)cc3c2-c2ccccc2)CC1c1ccco1 (centres unmarked)	-5.13
CC(Oc1ccccc1)C(=O)N(Cc1nc(-c2ccccc2)no1)C(C)C (centres unmarked)	-0.352
Cc1c(C2(c3c(C)n(C)n(-c4ccccc4)c3=O)C(=O)Nc3ccc([N+](=O)[O-])cc32)c(=O)n(-c2ccccc2)n1C	-8.37
Fc1cccc(CN2CCC(N3CCCCC3)CC2)c1	-4.95
CC(C)/C=C1\CC/C(=C\c2cccnc2)C1=O	1.83
O=C(c1ccc(F)cc1)N1CCN(C2C3CC4CC(C3)CC2C4)CC1 (centres unmarked)	-1.55
COc1ccccc1-c1noc(CCC(=O)Nc2cccnc2)n1	2.89
CCCOc1ccc(C2c3c(oc4ccccc4c3=O)C(=O)N2c2nc(C)c(C)s2)cc1OCC (centres unmarked)	0.189
COc1ccc(C(=O)Nc2ccc(C(=O)N3CCC(C)CC3)cc2)cc1OC	-3.33
Cc1ccccc1CN1CCN(CCO)CC1	-3.44
c1coc(-c2nnc(SCc3nc4ccccc4[nH]3)o2)c1	1.91
CC1Oc2ccccc2C=C1/C=C/C(=O)O (centres unmarked)	3.6
CCOC(=O)C1=C(C)NC(=O)CC1c1ccc(Cl)c(Cl)c1 (centres unmarked)	-0.13
CC1=CC(C)C2COC(c3ccccc3O)C1C2C (centres unmarked)	-6.6
CCOC(=O)c1sc2nc3n(c(=O)c2c1C)CCC3	-0.415
COc1ccc(S(=O)(=O)N(CC(=O)Nc2cccc(Cl)c2C)c2ccc(F)cc2)cc1OC	-5.21
Cc1ccc(NC(=O)c2cc3c(-c4ccccc4F)nn(C)c3s2)nc1	-5.1
CC(NC(=O)CN(C)S(=O)(=O)c1cc(Cl)ccc1Cl)c1ccccc1 (centres unmarked)	2.44

Structure (SMILES)	% Inhibition @ 10 uM [%]
O=C1c2ccccc2NCN1CC(O)c1cccc2ccccc12 (centres unmarked)	0.755
C=CCc1cccc2cc(C(C)=O)c(=O)oc12	2.13
CC(C)(CN1CCNCC1)NS(=O)(=O)c1ccccc1	-0.233
O=C(Nc1nc2ccccc2[nH]1)c1cccc(Cl)c1	-7.33
O=C(COc1ccc(Cl)cc1)N(Cc1ccc(Cl)cc1)Cc1ccco1	-4.02
Cc1ccc(C23CC4CC(CC(C(=O)N(C)C)(C4)C2)C3)cc1	-4.27
CCO/C(O)=C1\C(C)=NC(=S)NC1c1ccsc1 (centres unmarked)	-4.51
O=C(NCCC(c1ccccc1)c1ccccc1)c1ccc2c(c1)OCO2	2.93
CCOc1cc(C(=O)Nc2ccc(OC)cc2)ccc1OCc1ccccc1	2.23
O=C(Nc1noc2ccccc12)c1cc(Br)ccc1Cl	0.362
CN(CC(=O)O)S(=O)(=O)c1cccc2nsnc12	-5.76
Cc1nc(NC2=NCN(Cc3ccco3)CN2)nc2ccccc12	-3.5
O=C(c1ccc(-c2ccccc2)s1)N1CCOCC1	-2.17
CNS(=O)(=O)c1cnccc1N1CCN(C(C)C)CC1	-7.56
O=C1N=C(N2CCOCC2)S/C1=C/c1ccc(F)cc1	6.29
Cc1ccc2[nH]c3c(c2c1)CCCCC3C#N (centres unmarked)	-3.9
O=C(CN1C(=O)c2ccccc2S1(=O)=O)NC1CCCC1	2.22
COc1ccc(CN2C(=O)c3cccnc3C2=O)cc1S(=O)(=O)NCc1ccccc1Cl	1.03
CN(CCCNC(=O)c1nn(C)c2c1CS(=O)(=O)c1ccccc1-2)Cc1ccccc1	-1.38
Nc1nc(-c2ccccc2)sc1-c1ccccc1	-1.66
COc1ccc(-c2c(C)s/c(=N\C(=O)c3cccnc3)n2C)cc1	3.49
Cc1cc(C)cc(NCc2ccco2)c1	-5.59
CCOC(=O)N1CCN(C(=O)c2sc3nc(C)cc(C)c3c2-n2cccc2)CC1	3.87
COc1cscc1C(=O)N[C@@H](CC1CCCCC1)C(=O)NCC#N	-0.214
COc1ccc(Cc2nc(S(=O)(=O)c3ccccc3)c(NCc3ccccc3)o2)cc1	0.032
COC(=O)c1cc2oc(C)cc2n1CC(=O)c1ccccc1	1.72

Structure (SMILES)	% Inhibition @ 10 uM [%]
Cc1cc(Cl)ccc1N(CC(=O)Nc1ccc2c(c1)OCO2)S(=O)(=O)c1ccccc1	8.03
CCc1ccc(-n2c(SCC(=O)N3CCOCC3)nc3sc(C)c(C)c3c2=O)cc1	-0.968
CCCCCc1nn2cc(-c3ccccc3OCC)nc2s1	-0.946
CCc1ccccc1NC(=O)c1nn2c(C(F)(F)F)cc(-c3ccccc3)nc2c1Br	3.15
CCOC(=O)C1=C(C)N=C(C)/C(=C(/O)OCC)C1/C=C/c1ccccc1OC (centres unmarked)	-1.25
O=C(Cc1ccccc1)N1CCc2ccccc2C1	2.41
CC(=O)c1cccc(NC(=O)c2sc3nc4c(cc3c2N)CCCCCC4)c1	4.23
COc1cc(OC)cc(-c2cc3nc(C)c(CCC(=O)NC4CCCCCC4)c(C)n3n2)c1	-0.465
CC(=O)OC(C#CCN1CCOCC1)c1ccccc1 (centres unmarked)	-5.96
CCOc1ccc(/C=C2\SC(=O)N(CN3CCOCC3)C2=O)c(OCC)c1	3.69
O=C1/C(=C/c2cc(Br)cc(Br)c2O)Sc2ccccc21	9.96
Clc1nc(NCCN2CCOCC2)nc(NC2CCCCC2)n1	7.93
O=C(CCc1nc(-c2ccc(Cl)cc2)no1)NCc1ccco1	3.62
Cc1ccc(N(CC(=O)NC2CC3CCC2C3)S(=O)(=O)c2ccccc2)cc1Cl (centres unmarked)	-6.4
CN(C)CCc1ccccc1Sc1ccccc1	3.05
CCC(=O)c1ccc(OCC(=O)Nc2c(C)cccc2CC)cc1	-9.13
CC(=O)N1N=C(c2ccccc2)CC1c1ccccc1O (centres unmarked)	-0.0938
COc1ccc(/C=c2\sc3nnc(-c4ccccc4Cl)n3c2=O)cc1	3.72
CCOC(=O)c1ccc2nc3c(nc2c1)C(=O)c1ccccc1C3=O	-1.6
O=C(O)C1C2C=CC(C2)C1C(=O)NCc1ccc(Cl)c(Cl)c1 (centres unmarked)	-4.7
CCn1cc(/C=C(\NC(=O)c2ccccc2F)C(=O)NCCCn2ccnc2)c2ccccc21	-5.36
N#C/C(=C/c1ccc(O)cc1)c1nc(O)c2ccccc2n1	-10.4
Cc1occc1C(=O)Nc1nc2ccc(S(C)(=O)=O)cc2s1	2.01
CC1(C)Cc2nc3sc4c(=O)n(CC(N)=O)cnc4c3cc2CO1	-0.884
Cc1nc(C(=O)Nc2cccc(F)c2)c(C(=O)NC(C)C)nc1C	-7.14
COc1ccc2nc3sc(C(=O)NCc4ccc(F)cc4)cc3cc2c1	1.22

Structure (SMILES)	% Inhibition @ 10 uM [%]
COc1cc2c(cc1OC)C(c1ccccc1)N(S(C)(=O)=O)CC2 (centres unmarked)	1.8
CCN(CC)/C(=C/C(=O)c1cccc([N+](=O)[O-])c1)c1ccccc1	-0.239
Cc1ccccc1CSc1c[nH]c2ccccc12	10.5
COCCCNC(=O)/C(C#N)=C/c1c(Oc2ccccc2Cl)nc2ccccn2c1=O	-5.11
Nc1c(-c2nc(-c3ccncc3)no2)nnn1-c1ccccc1C(F)(F)F	4.73
N#CC1=C(N)OC2=C(C(=O)CC(c3ccccc3)C2)C1c1ccccc1C(F)(F)F (centres unmarked)	0.751
O=C(Nc1nc(-c2ccc(Br)cc2)cs1)C1CCC1	1.14
C=CCSc1nc(O)c2c(n1)OC(N)=C(C#N)C2c1ccccc1 (centres unmarked)	-2.14
CN(C)c1cc(NC(=O)CNC(C)(C)CC(C)(C)C)c2ccccc2n1	0.611
O=C(c1ccc(C(=O)N2CCN(c3ccccc3)CC2)cc1)N1CCN(c2ccccc2)CC1	0.815
CCOc1ccc2[nH]c(SCC(=O)C(C)(C)C)nc2c1	16.8
Cc1ccc(-c2cc(C(=O)O)c3ccccc3n2)o1	10.6
O=C(NCC1CCCO1)c1cnn2c(C(F)(F)F)cc(-c3ccc4c(c3)OCO4)nc12 (centres unmarked)	2.06
Cc1nn(CC(=O)NCCc2cccs2)c(=O)c2cc3cc(F)ccc3n12	-1.7
CCOc1ccc(N2C(=O)C(C)SC23C(=O)Nc2ccccc23)cc1 (centres unmarked)	2.09
CC1=C(C(=O)OC2CCCCCC2)C(c2ccc(Cl)c(Cl)c2)NC(=O)N1 (centres unmarked)	7.24
CC12CC3CC(C)(C1)CC(CC(N)=O)(C3)C2	-5.51
CC1=NN2C(=N)/C(=C\c3ccc(SC4CCCCC4)o3)C(=O)N=C2S1	-4.96
NC(=O)Nc1ccc2c(c1)Nc1ccccc1CC2	-0.736
N#CC1=C(N)OC2=C(C(=O)c3ccccc3C2=O)C1c1ccc2ccccc2c1 (centres unmarked)	2.91
COc1ccc(OCC(=O)Nc2ccc(F)c(Cl)c2)cc1	8.06
CCCSc1nnc2c(n1)[nH]c1c(C)cccc12	6.86
O=C(Cn1ncc2c1-c1ccccc1OC2)NCCN1CCN(Cc2ccccc2)CC1	4.16
